We go through five molecules from publication PMC4773014.

Amino acid sequences for entries named in this document (tags omitted). Residues count along the entry.
UniProt P16144, residues 28-1822: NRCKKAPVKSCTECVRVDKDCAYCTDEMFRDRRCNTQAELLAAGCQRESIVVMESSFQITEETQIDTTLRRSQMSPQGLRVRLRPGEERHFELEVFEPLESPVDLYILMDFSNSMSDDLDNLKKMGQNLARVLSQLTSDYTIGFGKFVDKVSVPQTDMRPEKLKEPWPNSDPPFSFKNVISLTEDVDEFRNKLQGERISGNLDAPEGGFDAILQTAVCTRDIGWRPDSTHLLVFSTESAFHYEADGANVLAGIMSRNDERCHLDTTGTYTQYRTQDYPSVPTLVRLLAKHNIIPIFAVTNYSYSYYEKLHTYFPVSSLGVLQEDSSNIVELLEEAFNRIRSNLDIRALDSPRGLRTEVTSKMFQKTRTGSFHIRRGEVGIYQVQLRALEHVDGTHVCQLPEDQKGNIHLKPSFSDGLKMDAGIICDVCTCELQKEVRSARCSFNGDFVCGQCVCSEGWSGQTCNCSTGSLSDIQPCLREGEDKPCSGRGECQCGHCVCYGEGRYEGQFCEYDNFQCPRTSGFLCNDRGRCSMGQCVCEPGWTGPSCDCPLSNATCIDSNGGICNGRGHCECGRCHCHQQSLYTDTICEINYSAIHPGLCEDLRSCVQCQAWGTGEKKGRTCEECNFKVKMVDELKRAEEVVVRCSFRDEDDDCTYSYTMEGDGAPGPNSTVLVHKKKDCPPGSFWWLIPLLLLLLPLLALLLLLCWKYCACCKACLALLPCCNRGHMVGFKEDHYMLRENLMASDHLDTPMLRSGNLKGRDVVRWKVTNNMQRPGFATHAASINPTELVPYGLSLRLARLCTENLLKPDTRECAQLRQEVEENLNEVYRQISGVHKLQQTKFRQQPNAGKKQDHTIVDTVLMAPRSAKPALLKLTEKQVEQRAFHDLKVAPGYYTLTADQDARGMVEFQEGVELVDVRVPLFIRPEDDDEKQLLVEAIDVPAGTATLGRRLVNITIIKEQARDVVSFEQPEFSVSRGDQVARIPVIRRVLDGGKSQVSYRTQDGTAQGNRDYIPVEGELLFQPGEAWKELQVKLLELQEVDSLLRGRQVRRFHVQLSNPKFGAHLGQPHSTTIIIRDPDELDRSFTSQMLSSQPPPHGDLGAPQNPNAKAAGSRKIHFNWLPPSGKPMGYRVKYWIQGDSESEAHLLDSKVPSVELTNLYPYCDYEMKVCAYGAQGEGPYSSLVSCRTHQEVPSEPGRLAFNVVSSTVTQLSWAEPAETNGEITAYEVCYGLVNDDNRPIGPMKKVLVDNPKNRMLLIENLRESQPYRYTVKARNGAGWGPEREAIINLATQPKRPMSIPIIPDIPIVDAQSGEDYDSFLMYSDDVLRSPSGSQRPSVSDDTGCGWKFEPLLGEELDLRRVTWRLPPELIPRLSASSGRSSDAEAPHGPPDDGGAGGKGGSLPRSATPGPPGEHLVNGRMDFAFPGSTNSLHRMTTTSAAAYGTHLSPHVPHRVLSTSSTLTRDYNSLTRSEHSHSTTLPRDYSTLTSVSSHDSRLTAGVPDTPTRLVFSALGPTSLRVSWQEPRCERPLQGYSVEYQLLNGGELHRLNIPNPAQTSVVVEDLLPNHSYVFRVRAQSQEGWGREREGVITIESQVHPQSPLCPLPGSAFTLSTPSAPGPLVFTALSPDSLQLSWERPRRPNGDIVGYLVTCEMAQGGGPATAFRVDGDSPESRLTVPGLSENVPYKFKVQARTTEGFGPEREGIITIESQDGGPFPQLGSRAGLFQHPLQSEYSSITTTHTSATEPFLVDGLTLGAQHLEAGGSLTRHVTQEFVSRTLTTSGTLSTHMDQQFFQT
UniProt Q07157: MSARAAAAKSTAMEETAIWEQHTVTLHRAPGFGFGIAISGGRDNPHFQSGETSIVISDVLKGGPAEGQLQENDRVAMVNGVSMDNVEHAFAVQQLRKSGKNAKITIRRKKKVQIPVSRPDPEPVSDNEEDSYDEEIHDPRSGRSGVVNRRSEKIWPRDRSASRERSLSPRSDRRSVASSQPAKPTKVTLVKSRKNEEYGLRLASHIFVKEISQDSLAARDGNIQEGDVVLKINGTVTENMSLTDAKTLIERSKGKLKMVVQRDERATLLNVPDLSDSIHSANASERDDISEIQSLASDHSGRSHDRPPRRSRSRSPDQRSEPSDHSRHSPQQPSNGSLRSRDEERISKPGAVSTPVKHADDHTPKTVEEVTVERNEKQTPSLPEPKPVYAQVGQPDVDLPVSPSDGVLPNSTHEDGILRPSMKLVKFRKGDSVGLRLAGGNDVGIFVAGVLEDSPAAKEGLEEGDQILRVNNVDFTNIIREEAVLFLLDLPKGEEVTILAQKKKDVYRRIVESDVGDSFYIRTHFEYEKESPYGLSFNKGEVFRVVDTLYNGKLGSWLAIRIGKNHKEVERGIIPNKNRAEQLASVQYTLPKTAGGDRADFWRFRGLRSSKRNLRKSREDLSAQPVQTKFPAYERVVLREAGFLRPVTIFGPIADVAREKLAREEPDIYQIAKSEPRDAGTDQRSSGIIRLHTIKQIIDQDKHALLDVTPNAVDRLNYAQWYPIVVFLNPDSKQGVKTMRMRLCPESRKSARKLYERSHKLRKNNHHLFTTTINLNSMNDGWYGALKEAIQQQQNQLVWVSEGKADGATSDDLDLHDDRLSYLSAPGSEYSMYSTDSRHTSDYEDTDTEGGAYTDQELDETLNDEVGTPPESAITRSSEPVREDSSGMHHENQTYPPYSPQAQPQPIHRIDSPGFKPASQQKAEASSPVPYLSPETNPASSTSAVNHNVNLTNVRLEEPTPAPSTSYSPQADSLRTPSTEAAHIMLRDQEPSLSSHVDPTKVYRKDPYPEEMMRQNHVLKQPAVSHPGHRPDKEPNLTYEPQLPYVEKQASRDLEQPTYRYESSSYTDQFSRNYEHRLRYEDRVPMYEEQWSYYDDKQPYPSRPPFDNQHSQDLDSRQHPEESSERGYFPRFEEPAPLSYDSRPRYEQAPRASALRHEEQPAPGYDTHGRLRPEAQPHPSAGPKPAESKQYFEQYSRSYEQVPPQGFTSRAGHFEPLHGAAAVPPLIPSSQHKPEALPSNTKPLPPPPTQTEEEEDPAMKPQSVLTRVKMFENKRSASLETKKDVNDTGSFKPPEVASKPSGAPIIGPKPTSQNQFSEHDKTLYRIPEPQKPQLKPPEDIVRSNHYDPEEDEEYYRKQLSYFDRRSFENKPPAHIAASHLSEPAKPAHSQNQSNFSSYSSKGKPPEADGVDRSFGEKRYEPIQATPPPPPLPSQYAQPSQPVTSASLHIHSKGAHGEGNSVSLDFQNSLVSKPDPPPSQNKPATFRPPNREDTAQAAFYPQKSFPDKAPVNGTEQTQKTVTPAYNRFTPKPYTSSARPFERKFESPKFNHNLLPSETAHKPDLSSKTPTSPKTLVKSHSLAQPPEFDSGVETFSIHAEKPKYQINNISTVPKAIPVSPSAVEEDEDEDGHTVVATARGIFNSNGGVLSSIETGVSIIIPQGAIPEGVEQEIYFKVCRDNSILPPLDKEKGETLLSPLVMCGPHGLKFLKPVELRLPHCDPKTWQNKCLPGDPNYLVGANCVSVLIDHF
UniProt P35222: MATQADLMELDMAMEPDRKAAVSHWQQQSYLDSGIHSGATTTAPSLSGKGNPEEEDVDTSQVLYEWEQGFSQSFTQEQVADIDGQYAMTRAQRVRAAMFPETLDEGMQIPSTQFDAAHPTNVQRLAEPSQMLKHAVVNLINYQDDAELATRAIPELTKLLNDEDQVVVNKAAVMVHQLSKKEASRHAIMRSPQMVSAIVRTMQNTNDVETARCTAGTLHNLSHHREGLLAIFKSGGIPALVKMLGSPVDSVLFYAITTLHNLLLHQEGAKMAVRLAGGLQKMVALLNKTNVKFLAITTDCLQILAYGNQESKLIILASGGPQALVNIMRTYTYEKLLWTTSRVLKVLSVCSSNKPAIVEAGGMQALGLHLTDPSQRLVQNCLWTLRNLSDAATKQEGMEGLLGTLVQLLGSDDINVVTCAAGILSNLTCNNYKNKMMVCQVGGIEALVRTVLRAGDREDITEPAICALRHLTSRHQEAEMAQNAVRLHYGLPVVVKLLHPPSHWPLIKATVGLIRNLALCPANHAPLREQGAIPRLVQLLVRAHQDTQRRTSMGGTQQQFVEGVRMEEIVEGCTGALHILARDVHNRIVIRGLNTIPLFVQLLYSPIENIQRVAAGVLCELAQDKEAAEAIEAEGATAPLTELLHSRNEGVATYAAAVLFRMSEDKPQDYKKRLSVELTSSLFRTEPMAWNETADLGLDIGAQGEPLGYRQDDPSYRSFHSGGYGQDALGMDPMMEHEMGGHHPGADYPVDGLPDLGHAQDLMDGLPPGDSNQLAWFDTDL
UniProt Q86T03: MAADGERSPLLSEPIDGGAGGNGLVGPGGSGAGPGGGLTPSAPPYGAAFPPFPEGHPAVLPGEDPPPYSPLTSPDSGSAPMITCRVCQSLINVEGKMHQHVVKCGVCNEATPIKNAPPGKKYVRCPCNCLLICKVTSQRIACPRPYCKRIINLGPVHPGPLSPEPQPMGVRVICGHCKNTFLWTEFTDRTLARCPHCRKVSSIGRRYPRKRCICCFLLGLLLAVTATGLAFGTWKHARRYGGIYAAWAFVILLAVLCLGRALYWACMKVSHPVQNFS

No constants are given. Whether binding was seen depends on the method and setting. In cells and extracts the contact can be indirect. Some results given as binding are weak or reduced against the parent protein; the word gives no strength. Where a sequence is shown, tags or fusion partners need not be part of it.

Assay [1] deals with T1, human CLCA2 (human) (UniProt Q9UQC9).
T1 sequence: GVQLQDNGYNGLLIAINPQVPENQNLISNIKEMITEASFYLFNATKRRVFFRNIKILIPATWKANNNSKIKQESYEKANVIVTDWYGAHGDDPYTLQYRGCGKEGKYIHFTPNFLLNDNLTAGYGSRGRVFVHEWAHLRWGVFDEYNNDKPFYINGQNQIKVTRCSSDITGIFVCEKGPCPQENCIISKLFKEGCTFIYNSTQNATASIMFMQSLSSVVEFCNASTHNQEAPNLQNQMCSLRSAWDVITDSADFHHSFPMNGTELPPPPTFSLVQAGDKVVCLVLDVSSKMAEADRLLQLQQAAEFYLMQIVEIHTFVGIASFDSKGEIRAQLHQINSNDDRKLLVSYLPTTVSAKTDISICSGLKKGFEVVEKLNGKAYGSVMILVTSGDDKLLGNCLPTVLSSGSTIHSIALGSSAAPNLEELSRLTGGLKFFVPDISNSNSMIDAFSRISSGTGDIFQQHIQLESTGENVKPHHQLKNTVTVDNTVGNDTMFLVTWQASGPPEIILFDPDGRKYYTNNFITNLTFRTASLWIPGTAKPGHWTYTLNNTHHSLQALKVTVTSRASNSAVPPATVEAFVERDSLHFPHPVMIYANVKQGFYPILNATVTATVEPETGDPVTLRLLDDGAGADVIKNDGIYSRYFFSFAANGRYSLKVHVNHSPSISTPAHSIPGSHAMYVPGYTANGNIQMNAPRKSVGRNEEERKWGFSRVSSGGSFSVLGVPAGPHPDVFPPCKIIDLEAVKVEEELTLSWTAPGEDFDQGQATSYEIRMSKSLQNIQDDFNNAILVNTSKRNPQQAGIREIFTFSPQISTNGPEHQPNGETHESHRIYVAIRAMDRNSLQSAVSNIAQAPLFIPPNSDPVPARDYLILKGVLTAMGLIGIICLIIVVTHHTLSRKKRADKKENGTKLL
Kind of assay: co-IP; cDNAs co-transfected (HEK293T named for Fig 1); lysates immunoprecipitated and immunoblotted with antibodies to FLAG, CLCA2 (TVE20) or GFP; buffer with 0.5% NP40.

The target in assay [2] is T2, GFP fused to the CLCA2 cytoplasmic tail alone (human) (UniProt Q9UQC9).
T2 sequence: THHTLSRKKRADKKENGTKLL
The description is as above.

For assay [3], the target named is integrin beta four (UniProt P16144). The assay is described as above.
The target in assay [4] is ZO-1 (human (endogenous in HEK293)) (UniProt Q07157). As to the kind of experiment: co-IP; HEK293 cells stably expressing CLCA2, CLCA2 lacking the cytoplasmic tail, or EVA1 alone, grown to superconfluency; lysates immunoprecipitated and immunoblotted with antibodies to CLCA2, ZO-1 or beta catenin; endogenous ZO-1 and beta catenin.
Assay [5] deals with beta catenin (human (endogenous in HEK293)) (UniProt P35222). The assay is described as above.
Assay [6] addresses T3, Epithelial V-like Antigen 1 (EVA1), FLAG-tagged (human) (UniProt O60487).
T3 sequence: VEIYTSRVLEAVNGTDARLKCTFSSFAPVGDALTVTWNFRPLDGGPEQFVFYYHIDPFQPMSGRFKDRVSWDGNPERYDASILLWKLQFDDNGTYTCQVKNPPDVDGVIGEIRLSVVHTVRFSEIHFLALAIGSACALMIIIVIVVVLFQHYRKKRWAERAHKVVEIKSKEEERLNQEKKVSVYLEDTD
As to the kind of experiment: co-IP; cDNAs co-transfected (HEK293T named for Fig 1); lysates immunoprecipitated and immunoblotted with antibodies to FLAG, CLCA2 (TVE20) or GFP; buffer with 0.5% NP40.

“TMEM55b, FLAG-tagged (from UniProt Q86T03 1-277)”: the binding entry in assay [1] is “no binding”.

B1: Epithelial V-like Antigen 1 (EVA1), FLAG-tagged (protein, UniProt O60487 27-215)
chain: T3 sequence
For the molecule B1, the values for the binding result in assay [1], in assay [2] and in assay [3] were “binds”, “no binding” and “no binding”, respectively.

B2: ssGFP tagged with the EVA1 TMS (domain or fragment, UniProt O60487 155-180)
chain: ALAIGSACALMIIIVIVVVLFQHYRK
For the molecule B2, the binding result in assay [1] is listed as “binds”.

B3: CLCA2 with a FLAG tag, stably expressed in HEK293 (protein, UniProt Q9UQC9 32-943)
chain: T1 sequence
In the case of B3, the binding entry in assay [4] and in assay [5] was “binds” throughout.

B4: human CLCA2 (protein, UniProt Q9UQC9 32-943)
chain: T1 sequence
With B4, the binding entry in assay [6] is reported as “binds”.
